Reference: PubChem BioAssay AID1347073 (National Center for Advancing Translational Sciences (NCATS), 2019)
Hit rate of the full screen: of about 45,000 compounds, about 200 (0.44%) were called active. Another 7% or so got no clear call; they are omitted. The call rests on the fitted dose curve; in most records, active means well fitted activation curve with a large enough effect; inconclusive means small, poorly fitted or top-dose-only effect; inactive means no such curve, though single readings can be large or run the other way. The list shows a part of the results.

Experiment: qHTS of TDP-43 Inhibitors: NCGC Sytravon Library Screen; further: nearly all actives have a fitted effect of over 55% in size; on growth rescue (activation): 0% is about no effect
Conditions: yeast TDP-43 toxicity rescue, BacTiter-Glo growth, 24 h; series mostly up to 46.1 µM; growth rescue (activation): at the top concentration
Source text: The goal of this project is to identify new chemical probes capable of reversing the toxicity associated with TDP-43 which is associated with frontotemporal lobar degeneration and amyotrophic lateral sclerosis. These compounds will provide a complementary approach to deciphering the tangled mechanisms of toxicity and protection that we have uncovered through genome-wide genetic screens and are beginning to uncover in a large-scale proteomics analysis with mass spectroscopy. To this end, a miniaturized assay was developed to be screened against the Molecular Libraries Small Molecule Repository (MLSMR) to discover TDP-43 inhibitors. Please note that in the set-up this yeast-based assay compounds that inhibit as TDP-43, have a read-out as activators. NIH Chemical Genomics Center [NCGC] NIH Molecular Libraries Probe Centers Network [MLPCN] Assay Submitter (PI): Susan Lindquist, Whitehead Institute/MIT MLPCN Grant: R21 NS060957
Dispense 2.5 microL yeast galactose medium per 1536-well plate, pin compound, dispense 2.5 microL TDP-43 expressing yeast in galactose medium at OD600=0.02 (pregrown in raffinose medium to mid-log phase) per well, incubate for 24 hr at 30 deg C, and cell growth will be measured using 5 microL of Bactiter/Glo reagent to entire plate and read using Luminescence Protocol in ViewLux.
Potency means the concentration at half of the fitted maximal effect.

| Compound | growth rescue (activation) | Potency |
| --- | --- | --- |
| CN(C)c1ccc(NC(=O)CN2CCC(NC(=O)C3CCCCC3)CC2)cc1 | inactive: -17.3% |  |
| COc1cccc(NC(=O)CNC(=O)c2ccc([N+](=O)[O-])cc2)c1 | inactive: 19.2% |  |
| O=C(c1cccc(C(F)(F)F)c1)C1CCCN(C(=O)CN2CCOC2=O)C1 (configuration not stated) | inactive: 20.4% |  |
| Cc1cccc(OCC(=O)N(Cc2ccc(N(C)C)cc2)C2CCS(=O)(=O)C2)c1 (configuration not stated) | inactive: -15.1% |  |
| N#CCC(=O)Nc1ccc(C(=O)NCCc2c[nH]c3ccccc23)cc1 | inactive: 5.82% |  |
| Cc1ccc(N(Cc2ccccc2F)S(C)(=O)=O)c(C)c1 | inactive: 32% |  |
| CC(C)[C@H](NC(=O)c1ccccc1)C(=O)OCC(=O)NCc1ccc2c(c1)OCO2 | inactive: 1.79% |  |
| O=C(COC(=O)Cc1ccsc1)NCc1ccccc1 | inactive: 8.43% |  |
| COc1cccc(CNc2ccc3[nH]c(=O)[nH]c3c2)c1OCc1ccc(F)cc1 | inactive: -17.3% |  |
| COc1ccc2oc(C(=O)OC(C)C(=O)N3C(C)CCCC3C)c(C)c2c1 (configuration not stated) | inactive: 13.2% |  |
| CN(C)S(=O)(=O)c1cc(NC(=O)COC(=O)CCc2ccccc2)ccc1Cl | inactive: -2.03% |  |
| Cc1ccc(NC(=O)c2ccc(NS(=O)(=O)c3c(C)noc3C)cc2)cc1C | inactive: 27.6% |  |
| O=C(CCSCCC(=O)NCc1ccc(F)cc1)NCc1ccc(F)cc1 | inactive: 18.8% |  |
| Cc1ccc(C(C(=O)NC2CCCCC2)N(C(=O)c2csnn2)c2ccccc2F)o1 (configuration not stated) | inactive: 15.9% |  |
| COc1ccc(CCNC(=O)CS(=O)(=O)Cc2nc(-c3ccc(C)cc3)oc2C)cc1OC | inactive: 1.36% |  |
| CC(=O)Oc1ccc(-c2cccc(C(=O)N(C)c3ccc(O)cc3)c2)cc1 | inactive: 0.817% |  |
| Cc1ccc2cc3cc(C(=O)N(C)c4ccccc4C)oc3nc2c1 | inactive: 14.3% |  |
| COc1ccc(C(=O)C2CCCN(C(=O)CCc3scnc3C)C2)c(C)c1 (configuration not stated) | inactive: 11.6% |  |
| COCCN1C[C@@H](CO)O[C@@H](n2cnc3c(N4CCN(c5ccccc5)CC4)ncnc32)C1 | inactive: 7.61% |  |
| Fc1ccc(NC(=S)Nc2ccccc2OC(F)F)cc1Cl | inactive: -11.5% |  |
| Cc1ccc(F)c(S(=O)(=O)NC(=O)C2(C)CCN2C(=O)Cc2cccs2)c1 (configuration not stated) | inactive: 4.4% |  |
| Cc1ccccc1Nc1scc(-c2ccc(Br)cc2)[n+]1-c1ccccc1C | inactive: 18.9% |  |
| COc1cccc(/C=N/NC(=O)c2cc(-c3ccccn3)nc3ccccc23)c1O | inactive: 9.5% |  |
| COc1ccc(CC(NC(C)=O)C(=O)NC2CCN(S(=O)(=O)c3ccc(NC(C)=O)cc3)CC2)cc1OC (configuration not stated) | inactive: -15.9% |  |
| CC1(C(=O)NCC2CC2)Cc2c(-c3cccc(C(N)=O)c3)ccnc2O1 (configuration not stated) | inactive: 5.48% |  |
| Clc1ncnc2scc(-c3ccc(Br)cc3)c12 | inactive: 15.8% |  |

| Compound | growth rescue (activation) | Potency |
| --- | --- | --- |
| COc1ccc(S(=O)(=O)C(C#N)c2nc3ccccc3nc2N2CCCCC2)cc1 (configuration not stated) | inactive: -0.506% |  |
| CCCOC(=O)c1ccc(Nc2c(C(=O)OCC)cnc3c(C)cc(Cl)cc23)cc1 | inactive: 23.2% |  |
| NC(=O)Nc1ccc(C(=O)OCC(=O)NC2CCCc3ccccc32)cc1 (configuration not stated) | inactive: 1.49% |  |
| COc1ccc2c(CC(=O)Nc3ccc(OC)c(NS(=O)(=O)c4ccc(F)cc4)c3)coc2c1 | inactive: 7.81% |  |
| CC1CCCC(NC(=O)CSc2nnc(-c3cccnc3)n2N)C1C (configuration not stated) | inactive: -1.44% |  |
| O=C(O)C(Cc1ccccc1)N1C(=O)/C(=C/c2cccs2)SC1=S (configuration not stated) | inactive: -37.7% |  |
| CN(C)CCCNC(=S)/N=c1\sccn1Cc1ccccc1Cl | inactive: -4.41% |  |
| Cc1c(Cl)cccc1NC(=O)c1cc(-c2ccco2)on1 | inactive: 11.1% |  |
| O=C(CCn1nnc2ccccc21)OCC(=O)c1ccc(F)cc1 | inactive: 7.05% |  |
| c1ccc(CCNC2=NCCS2)cc1 | inactive: 2.42% |  |
| O=C(Nc1ccc(Br)cn1)C1CCN(S(=O)(=O)c2cccs2)CC1 | inactive: 3.68% |  |
| CC(C)C(C)NC(=O)CN1C(=O)NC2(CCc3ccccc3C2)C1=O (configuration not stated) | inactive: -12.5% |  |
| COc1ccccc1CC(=O)Nc1nc(-c2ccc(F)c(F)c2)cs1 |  | active: 12.6 µM |
| CC(C)c1ccc2[nH]c3nc(SCC(=O)NC4CC4)nnc3c2c1 | inactive: -6.44% |  |
| O=C1C(NS(=O)(=O)c2ccc(Cl)cc2)=C(N2CCCCC2)C(=O)c2ccccc21 | inactive: 23.3% |  |
| COc1ccc(-n2nc(C(=O)NCC(=O)N3CCOCC3)c3ccccc3c2=O)cc1OC | inactive: 3.61% |  |
| CCCCC(O)(CCCC)C(=O)N/N=C(\C)c1ccc(Cl)cc1 | inactive: 5.34% |  |
| O=S(=O)(c1ccccc1)N1CN(c2ccc(F)cc2F)c2nc3ccccc3nc21 | inactive: 10.1% |  |
| Nc1ccc2oc(Cc3ccc(Cl)cc3)nc2c1 | inactive: -0.897% |  |
| Cc1ccc(NC(=O)c2cccc(S(=O)(=O)N3CCN(C)CC3)c2)cc1F | inactive: -7.89% |  |
| Cc1oc2c(CN3CCCCC3)c(O)ccc2c(=O)c1-c1ccc(Br)cc1 | inactive: -0.275% |  |
| CC(C)CN(CC(C)C)C(=O)Nc1cccc([N+](=O)[O-])c1 | inactive: 15.6% |  |
| CC(=O)N=Nc1[nH]c(N)c2ccccc12 | inactive: 15.6% |  |
| O=C(N/N=C/c1ccc(O)cc1O)c1ccc(CN2C(=O)c3cccc4cccc2c34)cc1 | inactive: 32.2% |  |
| CC(=O)N1CCN(c2ccccc2NC(=O)c2ccc(-c3cccc([N+](=O)[O-])c3)o2)CC1 | inactive: 2.17% |  |
| COC(=O)c1ccc(C(=O)N2CCCC(Nc3ccc(F)c(F)c3)C2)cc1 (configuration not stated) | inactive: 15.5% |  |

| Compound | growth rescue (activation) | Potency |
| --- | --- | --- |
| O=C1[C@@H]2[C@@H]3C[C@@H]([C@H]4ON=C(c5ccc(Cl)cc5)[C@@H]34)[C@@H]2C(=O)N1c1ccc2c(c1)OCO2 | inactive: 5.46% |  |
| O=C(NC1CC1)c1cccc(Br)c1 | inactive: 12% |  |
| Cc1ccc(S(=O)(=O)NCC2CCC(C(=O)NC3CCCCC3)CC2)cc1 (configuration not stated) | inactive: 17.6% |  |
| O=C(c1cn(-c2ccccc2)nc1-c1ccc(Cl)cc1)N1CCOCC1 | inactive: 8.51% |  |
| COc1cc(OC)c(NC(=O)CCNS(=O)(=O)c2ccc3c(c2)oc(=O)n3C)cc1Cl | inactive: -20.5% |  |
| O=C(N/N=C/C=C\c1ccccc1[N+](=O)[O-])c1cc(-c2ccc3ccccc3c2)n[nH]1 | inactive: 12.6% |  |
| COc1ccccc1C1C2=C(CC(C)(C)CC2=O)Nc2nnnn21 (configuration not stated) | inactive: -4.86% |  |
| CC1=NN(c2nc(-c3ccccc3)cs2)C(=O)C1N=Nc1ccccc1 (configuration not stated) | inactive: 11.5% |  |
| NS(=O)(=O)c1ccc(CCNc2nc(C(F)(F)F)nc3ccccc23)cc1 | inactive: 10.7% |  |
| Cc1sc2ncn(CCn3cnc4sc(C)c(C)c4c3=O)c(=O)c2c1C | inactive: -0.822% |  |
| Cc1ccc(C2=NC3(CCCC3)NC2=S)cc1 | inactive: 25% |  |
| CC(C)OC(=O)C[N+](C)(C)CCN1C(=O)C2C(c3ccccc3)C=CC(c3ccccc3)C2C1=O (configuration not stated) | inactive: 11% |  |
| COCc1cccc(C(=O)NC(c2ccccc2)c2ccccc2)c1 | inactive: 15.9% |  |
| COc1ccccc1N1CN(S(=O)(=O)c2ccc(C)cc2)c2nc3ccccc3nc21 | inactive: 10.7% |  |
| Cc1cccc(N(CC(=O)Nc2ccc(-c3nc4ccc(C)cc4s3)cc2)S(C)(=O)=O)c1 | inactive: 14% |  |
| CS(=O)(=O)N1CCCC(C(=O)Nc2ccccc2F)C1 (configuration not stated) | inactive: 7.63% |  |
| Cc1cc(C)c(NC(=O)c2ccccc2C(=O)c2ccccc2)c(C)c1 | inactive: -12.2% |  |
| COc1ccc(NC(=O)C2CCC(CNS(=O)(=O)c3cccs3)CC2)cc1OC (configuration not stated) | inactive: 5.16% |  |
| Cc1ccc(NC(=O)CN2C(=O)NC(C)(c3ccc(Cl)cc3)C2=O)c(Br)c1 (configuration not stated) | inactive: 12.8% |  |
| Cc1ccc(C)c(N2CC(C(=O)Nc3nccs3)CC2=O)c1 (configuration not stated) | inactive: -6.02% |  |
| Cc1ccc(OCCC(=O)N2CCN(c3ccc(O)cc3)CC2)cc1 | inactive: 20.9% |  |
| COc1ccc(N(CC(=O)NCC2CCCO2)S(=O)(=O)c2ccccc2)cc1OC (configuration not stated) | inactive: -2.11% |  |
| Cc1nc2ccccc2nc(C)c1=NOCC(=O)N(c1ccccc1)C(C)C | inactive: 7.41% |  |
| CC(=O)c1ccc(OC2(C)CCN(Cc3ccc4ccccc4c3)C2)cc1 (configuration not stated) | inactive: -18.4% |  |
| CCCN1CCC(NC(=O)Nc2ccc([N+](=O)[O-])cc2)CC1 | inactive: -5.51% |  |
| CC(C)(O)C#Cc1ccc(CN2CCN(Cc3ccsc3)C(CCO)C2)s1 (configuration not stated) | inactive: 12% |  |

| Compound | growth rescue (activation) | Potency |
| --- | --- | --- |
| O=[N+]([O-])c1ccc(/C=N/NC(=S)Nc2ccccc2)o1 | inactive: 17.2% |  |
| CCOC(=O)c1cc(-c2ccc([N+](=O)[O-])cc2)nc2c1c(=O)[nH]c(=O)n2Cc1ccccc1 | inactive: 7.44% |  |
| CN(C)c1ccc(/C=N/n2c(-c3ccccc3Br)n[nH]c2=S)cc1 | inactive: 6.59% |  |
| O=C(Nc1ccc(Cl)cc1)C1C2C=CC3(O2)C1C(=O)N(CCN1CCCCC1)C3C(=O)NC1CCCCC1 (configuration not stated) | inactive: 19.3% |  |
| COc1ccccc1NC(=O)CNC(c1ccccc1)c1ccccc1 | inactive: 14.7% |  |
| O=C(CCS(=O)(=O)c1ccccc1)Nc1nnc(C(F)(F)F)s1 | inactive: -4.93% |  |
| COCC(=O)NNS(=O)(=O)c1ccccc1[N+](=O)[O-] | inactive: -14.4% |  |
| COc1cc(/C=N/N=C2/NC(=O)C(CC(=O)O)S2)ccc1OCc1cccc(Cl)c1 (configuration not stated) | inactive: 28.7% |  |
| COC(=O)CNc1cc(S(=O)(=O)N2CCCCC2)ccc1Oc1ccc(C(=O)OC)cc1 | inactive: -0.358% |  |
| Cc1ccc(NC(=O)N(CCCN2CCOCC2)Cc2cc3cc4c(cc3[nH]c2=O)OCO4)cc1 | inactive: -9.56% |  |
| Nc1ccc(Br)c[n+]1Cc1cccc2cccnc12 | inactive: -2.22% |  |
| O=C(CSc1ncnc2sccc12)Nc1ccc(S(=O)(=O)N2CCOCC2)cc1 | inactive: -2.78% |  |
| CCNC(=O)CN(c1ccc(Oc2ccccc2)cc1)S(=O)(=O)c1ccccc1 | inactive: 13.3% |  |
| Cc1cc(Cl)ccc1Oc1ccc(C(N)=O)cc1[N+](=O)[O-] | inactive: 11.3% |  |
| O=C(C1CCN(S(=O)(=O)c2ccc(Br)s2)CC1)N1CCN(C2CCCCC2)CC1 | inactive: 9.07% |  |
| CCOc1ccccc1C(C(=O)NC1CCCC1)N(C(=O)c1csnn1)C1CC1 (configuration not stated) | inactive: 8.91% |  |
| O=C(/C=C/c1ccco1)Nc1cccnc1 | inactive: -6.71% |  |
| Cc1cccc(S(=O)(=O)Nc2ccc(-c3nc4ccc(C)cc4s3)cc2)c1 | inactive: -19.1% |  |
| Cc1cc(OCc2cc(C(=O)N3CCCCCC3)no2)cc(C)c1Cl | inactive: 13.8% |  |
| Cc1nn(CC(=O)OC(C)C(=O)Nc2ccccc2[N+](=O)[O-])c(C)c1[N+](=O)[O-] (configuration not stated) | inactive: 6.13% |  |
| O=C(NCC1CCOCC1)c1cccc2c(-c3cccnc3)coc12 | inactive: 14.5% |  |
| CC1CCc2cc(F)cc3c(O)c(C(=O)NCc4ccco4)c(=O)n1c23 (configuration not stated) | inactive: -5.74% |  |
| COCCNC(=O)/C(C#N)=C/c1cccc(NC(=O)c2ccccc2Cl)c1 | inactive: 8.52% |  |
| CC(C)(C)NC(=O)CN(C(=O)C1CSC(=O)C1)c1ccccc1F (configuration not stated) | inactive: 6.4% |  |
